Screen size: about 340,000 compounds; about 6,900 (2%) were called active. Rule as the data show it: active = inhibition above about 30%; inactive = below that, where a call was filed. This is a selection; strong and weak results do not stand in their true shares. Entries without a call were filed so in the source.

Usually inhibition stands for the drop in the measured response relative to a control, in per cent.

Sequence of UniProt P14416 (P14416 whole entry, looked up): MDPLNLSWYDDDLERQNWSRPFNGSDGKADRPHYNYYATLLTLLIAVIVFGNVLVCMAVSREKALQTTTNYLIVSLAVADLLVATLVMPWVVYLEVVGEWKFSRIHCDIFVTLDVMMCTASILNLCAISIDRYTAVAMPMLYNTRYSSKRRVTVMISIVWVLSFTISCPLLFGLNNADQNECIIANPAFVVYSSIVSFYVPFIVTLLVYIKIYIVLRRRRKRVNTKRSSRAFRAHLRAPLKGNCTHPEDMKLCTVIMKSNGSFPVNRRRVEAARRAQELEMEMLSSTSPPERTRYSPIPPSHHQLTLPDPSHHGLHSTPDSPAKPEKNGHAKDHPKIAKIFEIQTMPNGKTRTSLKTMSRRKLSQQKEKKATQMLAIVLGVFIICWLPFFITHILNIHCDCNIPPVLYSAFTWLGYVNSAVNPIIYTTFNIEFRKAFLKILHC

In this experiment the target is D(2) dopamine receptor (Homo sapiens) (UniProt P14416). The experiment is described as follows: HTS Assay for Allosteric Antagonists of the Human D2 Dopamine Receptor: Primary Screen for Antagonists. Also: 0% is about no effect. The note with it: HEK293 TREx D2 cells, calcium flux, dopamine EC80; at 10 µM; stronger effect = higher value. The method, boiled down:
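Inhibition of EC80 dopamine-driven calcium flux, recorded kinetically, defines activity here; cells are a tetracycline-induced HEK293 T-REx line expressing force-coupled D2.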
(Calcium assays in cells follow changes in intracellular calcium, usually with a dye or a luminescent sensor.)
With `O=C(CSc1c2c(nc3ccccc13)CCC2)Nc1ccc(F)cc1`, the inhibition was -4.28%.
As to `CC(C)(C)c1ccc(C(=O)NCC(c2ccco2)S(=O)(=O)c2ccc(F)cc2)cc1` (configuration not stated), the inhibition is -23.6%.
Under `CN(C)c1ccc(CNC(=O)c2ccc(Cn3c(=O)c4cccn4c4cccnc43)cc2)cc1` stands -6.88%; under `Cc1ccc(C(=O)N(Cc2sccc2C)C2CCS(=O)(=O)C2)cc1` (configuration not stated), 1.87%.
`Cc1nc(C)c(-c2ccc(SCC(=O)Nc3ccc(Cl)c(Cl)c3)nn2)s1`: the inhibition is 23.4%.
In the case of `COc1ccc(OC)c(-n2nnc3c(sc4nc(C)c(Br)c(C)c43)c2=O)c1` it was 3.23%; in that of `COc1ccccc1NC(=O)N1c2ccccc2Sc2ccccc21`, -7.67%; in that of `CCOc1ccc(C(=O)Nc2cc(NC(=O)c3ccco3)ccc2OC)cc1Br`, -10.3%.
Under `Cc1ccc(CCNC(=O)CCN2N=C(c3ccc(C)cc3)CCC2=O)cc1` stands 19.9%.
In the case of `COc1ccc(-c2nc3cc(NC(=O)Cc4ccc(Cl)cc4)ccc3o2)cc1OC` it was 6.45%; in that of `COc1ccc(CCC(=O)NCc2ccc3c(c2)CCN3C(=O)c2ccc(F)cc2)cc1`, -3.85%; in that of `Cc1ccsc1CCN1C(=O)N(c2ccccc2)C(=O)C1CC(=O)Nc1ccc(F)cc1` (configuration not stated), -18.7%.
Consider `Cc1ccc(Cl)cc1Nc1nc2ccccc2c2nncn12`, for which the inhibition came to 6.52%.
In the case of `Cc1cccc(C)c1NC(=O)c1ccc2c(c1)N(Cc1cccc(Cl)c1)C(=O)c1ccccc1S2=O` (configuration not stated) it was -13.5%; in that of `CCOC(=O)c1ccc(NC(=O)Cn2nc(SC)c(S(=O)(=O)c3ccc(Cl)cc3)c2N)cc1`, -4.73%; in that of `CC(C)CC(=O)Nc1nnc(S(=O)(=O)N2CCCCCC2)s1`, -6.34%.
In the case of `CC(=O)N1CCC2(CC1)OC(=O)C(C)=C2C(=O)Nc1cccc(Cl)c1C` it was -5.98%; in that of `Cc1cccc(C(=O)Nc2cc3c(cc2N2CCCCC2)n(C)c(=O)c(=O)n3C)c1`, -1.86%; in that of `CCCCC(=O)Nc1cc(C)c(O)c(-c2nc3ncccc3o2)c1`, 7.78%.
In the case of `O=C(CC1N=C2c3ccccc3N=C(SCc3ccccc3F)N2C1=O)NCCc1ccccc1` (configuration not stated) it was -15.9%.
As to `CC1=C(C(=O)Nc2ccccc2)C(c2cccnc2)n2nc(SCc3ccccc3F)nc2N1` (configuration not stated), the inhibition came to 2.29%.
As to `O=c1c2sc3ccccc3c2n(Cc2ccccc2F)c(=O)n1Cc1ccccc1`, the inhibition came to 16.4%.
Under `COc1ccc(Cl)cc1NC(=O)c1cc(C)nc2c1c(C)nn2-c1ccccc1` stands 10.7%.
As for `COc1cccc(CNC(=O)C2CCN(C(=O)N3CCOc4ccc(Cl)cc43)CC2)c1OC`, the inhibition is 5.46%.
In the case of `Cc1ccc(Cn2c(=O)n(Cc3ccco3)c(=O)c3sc4ccccc4c32)cc1` it was -3.62%; in that of `Cc1nc2c(C(=O)NCc3ccccc3)cnn2c(C)c1Cc1ccc(F)cc1`, -11.9%.
In the case of `O=c1c2cnn(-c3ccc(Cl)cc3)c2ncn1Cc1ccc(Cl)cc1Cl` it was -1.9%; in that of `CN1CCc2c(sc(/N=C/c3cc(C(C)(C)C)ccc3O)c2C#N)C1`, active: 89.5%.
For the compound `Cc1ccc(-n2nc(C(=O)N3CCN(c4cccc(C(F)(F)F)c4)CC3)c(=O)n(C)c2=O)cc1`, the inhibition is 0.382%.
Under `Cc1ccc(CNc2ccc(-c3nc(C(C)C)no3)cc2[N+](=O)[O-])cc1` stands 15.6%; under `Cc1oc2ccc(O)c(CN3CCOCC3)c2c1C(=O)Nc1ccccc1`, -3.41%.
Take `COc1cc(NC(=O)CN2C(=O)C(c3ccc(C)cc3)=NC23CCCCC3)cc(OC)c1`: the inhibition stood at 5%.
In the case of `Cc1ccc(-n2c(=O)c3c(c4cc(C)ccc4n3C)n(CC(=O)Nc3c(C)cccc3C)c2=O)cc1`, the inhibition was -0.401%.
In the case of `O=C(CCSCCc1ccccn1)Nc1cc(F)ccc1F` it was 4.55%; in that of `CC(NC(=O)c1ccc2c(c1)N(Cc1cccc(F)c1)C(=O)c1ccccc1S2)c1ccccc1` (configuration not stated), 14.2%; in that of `CCCCN(C)CCNC(=O)c1c(C)oc2ncnc(N3CCOCC3)c12`, 3.11%.
Regarding `Cc1cccc(NC(=O)Cn2c(=O)n(CCC(C)C)c(=O)c3cccnc32)c1`, the inhibition was -10.1%.
In the case of `Cc1ccc(NC(=O)c2cnn(-c3ccc(C)c(C)c3)c2C2CCN(C(=O)OC(C)(C)C)CC2)c(C)c1` it was -6.14%; in that of `COc1ccc(CNS(=O)(=O)c2cc3c(cc2C)n(C)c(=O)c(=O)n3C)cc1`, 4.56%; in that of `Cc1cc(C)c2nc(N3CCCC(C(=O)NCc4cccc(Cl)c4)C3)sc2c1` (configuration not stated), 12.4%.
Take `COc1cccc(NC(=O)c2nn(-c3ccc(C)cc3)c(=O)n(C)c2=O)c1`: the inhibition turned out to be 23.5%.
In the case of `CC(C)CN(CC(C)C)C(=O)C1CCCN(S(=O)(=O)c2ccc3c(c2)oc(=O)n3C)C1` (configuration not stated), the inhibition came out at 6.15%.
Under `COc1ccc(CCNC(=O)c2[nH]c(C)c(C(C)=O)c2C)cc1OC` stands active: 37.7%; under `CCc1ccc(CNC(=O)c2ccc3nc(SCc4ccc(F)cc4)n(C)c3c2)cc1`, 7.96%; under `Cc1ccc(NS(=O)(=O)c2ccc3c(c2)NC(=O)C(C)C(=O)N3)cc1F` (configuration not stated), 25.5%.
In the case of `COc1ccccc1/C=C/CN1CCC(n2nccc2NC(=O)CCc2ccccc2)CC1`, the inhibition was active: 35.3%.
For `Fc1ccc(/C=N/n2c(C3CCCCC3)n[nH]c2=S)cc1`, the inhibition was active: 50.2%.
In the case of `Cc1cccc(N2CCN(C(=O)c3cc4c(=O)oc5ccccc5c4s3)CC2C)c1` (configuration not stated), the inhibition stood at 5.84%.
Regarding `CCN1C(=O)c2ccccc2Sc2ccc(NC(=O)COc3ccc(Cl)cc3)cc21`, the inhibition came out at 5.59%.
For `COc1ccc(C(=O)CC2(O)C(=O)Nc3c(C)cccc32)c(OC)c1OC` (configuration not stated), the inhibition is -13.6%.
`CCOc1ccc(-n2c(SCC(=O)Nc3cccc(Cl)c3)nc3c(oc4ccccc43)c2=O)cc1`: the inhibition is 8.48%.
In the case of `CCOc1ccc(-c2cnc(NCc3ccc(C(F)(F)F)cc3)n2C)cc1` it was 10.6%.
In the case of `CN1CCN(c2ncc3c(n2)CCN(Cc2cc(Br)cs2)C3)CC1` it was -6.5%; in that of `COc1ccc(S(=O)(=O)NCCc2sc(C)nc2C)cc1F`, 2.11%; in that of `Cn1c(=O)n(C/C=C/c2ccccc2)c(=O)c2c1nc1n2CCN1c1ccc(F)cc1`, 24.9%.
As to `Cc1ccc(C(=O)Nc2ccccc2)cc1S(=O)(=O)N1CCN(C)CC1`, the inhibition is active: 35.1%.
Turning to `Cc1cccc(OCCCCn2c(C3CC(=O)N(c4ccccc4Cl)C3)nc3ccccc32)c1` (configuration not stated), the inhibition stood at 2.22%.
Under `Cc1ccc(-c2nc3cc(NC(=O)c4cc5ccccc5o4)ccc3o2)cc1` stands -1.11%.
In the case of `CC(=O)Nc1ccc(Oc2sc(C(=O)c3ccccc3)c(N)c2C#N)cc1` it was active: 31.5%; in that of `O=C(Nc1cc(F)ccc1F)N1CCC(CN2CCOCC2)CC1`, -2.32%.
Under `COc1ccc(-n2cc(-c3ccccc3)c3c(NC4CCCCC4)ncnc32)cc1` stands 12.5%.
Take `CCN1CCCC1CNC(=O)c1[nH]c2ccc(OC)cc2c1C` (configuration not stated): the inhibition is active: 40.1%.
